MIC of clinical C. albicans isolates, CLSI broth microdilution (ranges and time not stated); higher = less susceptible. Call: susceptible or wild type [S] / resistant or non-wild type [R] by CLSI breakpoints or epidemiological cut-offs; intermediate and dose-dependent carry no call here (the paper groups them with resistant). '<=' and '>=' mark each drug's lowest and highest value, inferred; the source prints them plain. Isolates are numbered anew.
Experiments:
Test in all cases: CLSI broth microdilution.
itraconazole = compound: CCC(C)n1ncn(-c2ccc(N3CCN(c4ccc(OCC5COC(Cn6cncn6)(c6ccc(Cl)cc6Cl)O5)cc4)CC3)cc2)c1=O [itraconazole]
micafungin = compound: CCCCCOc1ccc(-c2cc(-c3ccc(C(=O)N[C@H]4C[C@@H](O)[C@@H](O)NC(=O)[C@@H]5[C@@H](O)[C@@H](C)CN5C(=O)[C@H]([C@H](O)CC(N)=O)NC(=O)[C@H]([C@H](O)[C@@H](O)c5ccc(O)c(OS(=O)(=O)O)c5)NC(=O)[C@@H]5C[C@@H](O)CN5C(=O)[C@H]([C@@H](C)O)NC4=O)cc3)no2)cc1 [micafungin]
anidulafungin = compound: CCCCCOc1ccc(-c2ccc(-c3ccc(C(=O)N[C@H]4C[C@@H](O)[C@@H](O)NC(=O)[C@@H]5[C@@H](O)[C@@H](C)CN5C(=O)[C@H]([C@@H](C)O)NC(=O)[C@H]([C@H](O)[C@@H](O)c5ccc(O)cc5)NC(=O)[C@@H]5C[C@@H](O)CN5C(=O)[C@H]([C@@H](C)O)NC4=O)cc3)cc2)cc1 [anidulafungin]
posaconazole = compound: CC[C@@H]([C@H](C)O)n1ncn(-c2ccc(N3CCN(c4ccc(OC[C@@H]5CO[C@@](Cn6cncn6)(c6ccc(F)cc6F)C5)cc4)CC3)cc2)c1=O [posaconazole]
caspofungin = compound: CC[C@H](C)C[C@H](C)CCCCCCCCC(=O)N[C@H]1C[C@@H](O)[C@@H](NCCN)NC(=O)[C@@H]2[C@@H](O)CCN2C(=O)[C@H]([C@H](O)CCN)NC(=O)[C@H]([C@H](O)[C@@H](O)c2ccc(O)cc2)NC(=O)[C@@H]2C[C@@H](O)CN2C(=O)[C@H]([C@@H](C)O)NC1=O [caspofungin]
voriconazole = compound: C[C@@H](c1ncncc1F)[C@](O)(Cn1cncn1)c1ccc(F)cc1F [voriconazole]
amphotericin B = compound: C[C@@H]1[C@H](O)[C@@H](C)/C=C/C=C/C=C/C=C/C=C/C=C/C=C/[C@H](O[C@@H]2O[C@H](C)[C@@H](O)[C@H](N)[C@@H]2O)C[C@@H]2O[C@](O)(C[C@@H](O)C[C@@H](O)[C@H](O)CC[C@@H](O)C[C@@H](O)CC(=O)O[C@H]1C)C[C@H](O)[C@H]2C(=O)O [amphotericin B]
flucytosine = compound: Nc1[nH]c(=O)ncc1F [flucytosine]
fluconazole = compound: OC(Cn1cncn1)(Cn1cncn1)c1ccc(F)cc1F [fluconazole]

Row | Test System | MIC (itraconazole) | MIC (micafungin) | MIC (anidulafungin) | MIC (posaconazole) | MIC (caspofungin) | MIC (voriconazole) | MIC (amphotericin B) | MIC (flucytosine) | MIC (fluconazole)
1 | Candida albicans isolate 89 (Erg11p: E266D, Fur1p: WT, Tac1p: C908Y,A377V,N174D,M170I,I109N,K87N) | 0.03 mg/L [S] | 0.015 mg/L [S] | 0.03 mg/L [S] | 0.015 mg/L [S] | 0.06 mg/L [S] | ≤ 0.008 mg/L [S] | 1 mg/L [S] | ≤ 0.06 mg/L [S] | 0.25 mg/L [S]
2 | Candida albicans isolate 174 (Erg11p: V488I,E266D, Fur1p: WT, Tac1p: M170V,S108N) | 0.06 mg/L [S] | 0.015 mg/L [S] | 0.06 mg/L [S] | 0.03 mg/L [S] | 0.03 mg/L [S] | ≤ 0.008 mg/L [S] | 0.5 mg/L [S] | 0.12 mg/L [S] | 0.5 mg/L [S]
3 | Candida albicans isolate 229 (Erg11p: V488I,E266D, Fur1p: WT, Tac1p: N896S) | 0.03 mg/L [S] | ≤ 0.008 mg/L [S] | 0.03 mg/L [S] | 0.015 mg/L [S] | 0.03 mg/L [S] | ≤ 0.008 mg/L [S] | 0.5 mg/L [S] | ≤ 0.06 mg/L [S] | 0.25 mg/L [S]
4 | Candida albicans isolate 320 (Erg11p: G465S,Y132H, Fur1p: R101C, Tac1p: L704F) | 0.5 mg/L [R] | 0.015 mg/L [S] | ≤ 0.015 mg/L [S] | 0.5 mg/L [R] | 0.03 mg/L [S] | 4 mg/L [R] | 0.5 mg/L [S] | 0.25 mg/L [S] | 32 mg/L [R]
5 | Candida albicans isolate 20 (Erg11p: WT, Fur1p: WT, Tac1p: I558V,A377V,F189S,N174D,M170I,K87N) | 0.06 mg/L [S] | 0.015 mg/L [S] | ≤ 0.015 mg/L [S] | 0.06 mg/L [S] | 0.06 mg/L [S] | 0.03 mg/L [S] | 0.5 mg/L [S] | ≤ 0.06 mg/L [S] | 1 mg/L [S]
6 | Candida albicans isolate 368 (Erg11p: E266D,G129A, Fur1p: WT, Tac1p: R869Q,L695F,I558V,A377V,F189S,M170V,L131I) | 0.03 mg/L [S] | 0.015 mg/L [S] | ≤ 0.015 mg/L [S] | 0.015 mg/L [S] | 0.015 mg/L [S] | ≤ 0.008 mg/L [S] | 0.5 mg/L [S] | ≤ 0.06 mg/L [S] | 0.5 mg/L [S]
7 | Candida albicans isolate 197 (Erg11p: D153E, Fur1p: WT, Tac1p: N896S) | 0.03 mg/L [S] | 0.015 mg/L [S] | 0.03 mg/L [S] | 0.015 mg/L [S] | 0.03 mg/L [S] | ≤ 0.008 mg/L [S] | 0.25 mg/L [S] | ≤ 0.06 mg/L [S] | 0.5 mg/L [S]
8 | Candida albicans isolate 306 (Erg11p: D153E, Fur1p: WT, Tac1p: N896S) | 0.06 mg/L [S] | 0.015 mg/L [S] | 0.06 mg/L [S] | 0.03 mg/L [S] | 0.06 mg/L [S] | ≤ 0.008 mg/L [S] | 0.5 mg/L [S] | 0.12 mg/L [S] | 0.5 mg/L [S]
9 | Candida albicans isolate 117 (Erg11p: WT, Fur1p: WT, Tac1p: WT) | 0.03 mg/L [S] | ≤ 0.008 mg/L [S] | 0.12 mg/L [S] | 0.015 mg/L [S] | 0.12 mg/L [S] | ≤ 0.008 mg/L [S] | 0.5 mg/L [S] | ≤ 0.06 mg/L [S] | 0.25 mg/L [S]
10 | Candida albicans isolate 32 (Erg11p: V488I,E266D, Fur1p: WT, Tac1p: N896S,I895T) | 0.12 mg/L [S] | 0.015 mg/L [S] | ≤ 0.015 mg/L [S] | 0.03 mg/L [S] | 0.03 mg/L [S] | ≤ 0.008 mg/L [S] | 0.5 mg/L [S] | ≥ 64 mg/L [R] | 0.5 mg/L [S]
11 | Candida albicans isolate 64 (Erg11p: WT, Fur1p: WT, Tac1p: I558V,A377V,F189S,N174D,M170I,K87N) | 0.03 mg/L [S] | 0.015 mg/L [S] | ≤ 0.015 mg/L [S] | 0.015 mg/L [S] | 0.015 mg/L [S] | ≤ 0.008 mg/L [S] | 0.5 mg/L [S] | ≤ 0.06 mg/L [S] | 0.5 mg/L [S]
12 | Candida albicans isolate 60 (Erg11p: WT, Fur1p: WT, Tac1p: WT) | 0.03 mg/L [S] | ≤ 0.008 mg/L [S] | 0.03 mg/L [S] | 0.03 mg/L [S] | 0.03 mg/L [S] | ≤ 0.008 mg/L [S] | 0.25 mg/L [S] | ≤ 0.06 mg/L [S] | 0.5 mg/L [S]
13 | Candida albicans isolate 75 (Erg11p: E266D,G129A, Fur1p: WT, Tac1p: R869Q,L695F,I558V,A377V,F189S,M170V,L131I) | 0.03 mg/L [S] | 0.015 mg/L [S] | ≤ 0.015 mg/L [S] | 0.03 mg/L [S] | 0.03 mg/L [S] | ≤ 0.008 mg/L [S] | 0.25 mg/L [S] | ≤ 0.06 mg/L [S] | 0.5 mg/L [S]
14 | Candida albicans isolate 156 (Erg11p: V488I,E266D, Fur1p: WT, Tac1p: N896S,L550S) | 0.03 mg/L [S] | 0.015 mg/L [S] | 0.06 mg/L [S] | 0.015 mg/L [S] | 0.03 mg/L [S] | ≤ 0.008 mg/L [S] | 0.5 mg/L [S] | ≤ 0.06 mg/L [S] | 0.25 mg/L [S]
15 | Candida albicans isolate 287 (Erg11p: V488I,E266D, Fur1p: WT, Tac1p: N896S,I558V,A377V,F189S,N174D,M170I,K87N) | 0.06 mg/L [S] | ≤ 0.008 mg/L [S] | 0.12 mg/L [S] | 0.03 mg/L [S] | 0.03 mg/L [S] | ≤ 0.008 mg/L [S] | 0.5 mg/L [S] | ≤ 0.06 mg/L [S] | 0.5 mg/L [S]
16 | Candida albicans isolate 201 (Erg11p: V488I,E266D, Fur1p: WT, Tac1p: N896S,A377V,F189S,N174D,M170I,K87N) | 0.06 mg/L [S] | ≤ 0.008 mg/L [S] | 0.06 mg/L [S] | 0.03 mg/L [S] | 0.06 mg/L [S] | ≤ 0.008 mg/L [S] | 0.5 mg/L [S] | ≤ 0.06 mg/L [S] | 0.5 mg/L [S]
17 | Candida albicans isolate 181 (Erg11p: WT, Fur1p: WT, Tac1p: N896S) | ≤ 0.015 mg/L [S] | ≤ 0.008 mg/L [S] | ≤ 0.015 mg/L [S] | 0.015 mg/L [S] | 0.015 mg/L [S] | ≤ 0.008 mg/L [S] | 0.5 mg/L [S] | ≤ 0.06 mg/L [S] | 0.25 mg/L [S]

From the supplement of paper PMC9927326
